Cell count data for 29 compounds are collected here from the supplement of paper PMC4604168 (melanoma cell lines).

This is one part of the list. Many values rest on one well or one pass, so single values are uncertain.
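Further: cells treated in 1,536-well plates, then fixed and DAPI-stained, with nuclei counted from automated high-throughput microscope images.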

The assay deals with A2058. The assay can be described thus: cell count relative to DMSO control; melanoma cells; higher = more viable cells. The settings on record: library dose: standard library concentration; 72 h.
`Cc1cc(Nc2cc(N3CCN(C)CC3)nc(Sc3ccc(NC(=O)C4CC4)cc3)n2)n[nH]1` [Tozasertib] + Cn1cc(C2=C(c3cn(C4CCN(Cc5ccccn5)CC4)c4ccccc34)C(=O)NC2=O)c2ccccc21 [Enzastaurin] (first compound 0.03 µM, partner dose 4 µM) returned a cell count of 88.8%. Turning to `Oc1nc(-c2ccc(C(F)(F)F)cc2)nc2c1CSCC2` + O=C(Oc1ccc([N+](=O)[O-])cc1)N1CCC(C(O)(c2ccc3c(c2)OCO3)c2ccc3c(c2)OCO3)CC1 [JZL184] (first compound 10 µM, partner dose 5 µM), the cell count turned out to be 88.1%.

For the compound `CO[C@H]1C[C@@H]2CC[C@@H](C)[C@@](O)(O2)C(=O)C(=O)N2CCCC[C@H]2C(=O)O[C@H]([C@H](C)C[C@@H]2CC[C@@H](OCCO)[C@H](OC)C2)CC(=O)[C@H](C)/C=C(\C)[C@@H](O)[C@@H](OC)C(=O)[C@H](C)C[C@H](C)/C=C/C=C/C=C/1C` [everolimus] + O=C(Oc1ccc([N+](=O)[O-])cc1)N1CCC(C(O)(c2ccc3c(c2)OCO3)c2ccc3c(c2)OCO3)CC1 [JZL184] (first compound 0.1 µM, partner dose 5 µM), the cell count is 67.1%. As for `O=C(O)C(=O)Nc1sc2c(c1C(=O)O)CCNC2` + O=C(Oc1ccc([N+](=O)[O-])cc1)N1CCC(C(O)(c2ccc3c(c2)OCO3)c2ccc3c(c2)OCO3)CC1 [JZL184] (first compound 8.33333 µM, partner dose 5 µM), the figure is 117%. As for `Cn1c(Nc2ccc(C(F)(F)F)cc2)nc2cc(Oc3ccnc(-c4ncc(C(F)(F)F)[nH]4)c3)ccc21` + C/C(O)=C(\C#N)C(=O)Nc1cc(Br)ccc1Br [LFM-A13] (first compound 0.4 µM, partner dose 10 µM), the figure is 59.3%. The value for `C#Cc1cccc(Nc2ncnc3cc(OCCOC)c(OCCOC)cc23)c1` [erlotinib] + Cc1cc(SCc2sc(-c3ccc(C(F)(F)F)c(F)c3)nc2C)ccc1OCC(=O)O [GW0742] (first compound 4 µM, partner dose 10 µM) was 90%. As for `O=C(CCCCCCC(=O)Nc1ccccc1)NO` [vorinostat] + O=C(Oc1ccc([N+](=O)[O-])cc1)N1CCC(C(O)(c2ccc3c(c2)OCO3)c2ccc3c(c2)OCO3)CC1 [JZL184] (first compound 0.4 µM, partner dose 5 µM), the cell count worked out at 92.2%.

Compound `O=C(O)c1ccc2c(c1)nc(Nc1cccc(Cl)c1)c1ccncc12` + C[As](C)SC[C@H](NC(=O)CC[C@H](N)C(=O)O)C(=O)NCC(=O)O [Darinaparsin] (first compound 2 µM, partner dose 2 µM) displayed a cell count of 80.4%. The value for `Cc1cc(Nc2cc(N3CCN(C)CC3)nc(Sc3ccc(NC(=O)C4CC4)cc3)n2)n[nH]1` [Tozasertib] + N.N.[Cl][Pt][Cl] [cisplatin] (first compound 0.03 µM, partner dose 8 µM) was 101%; that for `Cc1cc(Nc2cc(N3CCN(C)CC3)nc(Sc3ccc(NC(=O)C4CC4)cc3)n2)n[nH]1` [Tozasertib] + C[As](C)SC[C@H](NC(=O)CC[C@H](N)C(=O)O)C(=O)NCC(=O)O [Darinaparsin] (first compound 0.03 µM, partner dose 2 µM) was 79%. The value for `COc1ccc(COc2ccc(Cc3cnc(N)nc3N)cc2OC)cc1` + C/C(O)=C(\C#N)C(=O)Nc1cc(Br)ccc1Br [LFM-A13] (first compound 5 µM, partner dose 10 µM) was 112%; that for `Clc1ccc(Nc2nnc(Cc3ccncc3)c3ccccc23)cc1` [vatalanib] + C[As](C)SC[C@H](NC(=O)CC[C@H](N)C(=O)O)C(=O)NCC(=O)O [Darinaparsin] (first compound 10 µM, partner dose 2 µM) was 73.1%; that for `CN1CCN(c2ccc3nc(-c4c(N)c5c(F)cccc5[nH]c4=O)[nH]c3c2)CC1` [Dovitinib] + C[As](C)SC[C@H](NC(=O)CC[C@H](N)C(=O)O)C(=O)NCC(=O)O [Darinaparsin] (first compound 0.5 µM, partner dose 2 µM) was 52.1%. As for `Clc1ccc(Nc2nnc(Cc3ccncc3)c3ccccc23)cc1` [vatalanib] + Cc1cc(SCc2sc(-c3ccc(C(F)(F)F)c(F)c3)nc2C)ccc1OCC(=O)O [GW0742] (first compound 10 µM, partner dose 10 µM), the cell count came to 92.3%.

Compound `O=C(O)c1ccc2c(c1)nc(Nc1cccc(Cl)c1)c1ccncc12` + C/C(O)=C(\C#N)C(=O)Nc1cc(Br)ccc1Br [LFM-A13] (first compound 2 µM, partner dose 10 µM) returned a cell count of 73.4%. As for `Nc1ccn([C@@H]2O[C@H](CO)[C@@H](O)C2(F)F)c(=O)n1` [gemcitabine] + Cc1cc(SCc2sc(-c3ccc(C(F)(F)F)c(F)c3)nc2C)ccc1OCC(=O)O [GW0742] (first compound 0.002 µM, partner dose 10 µM), the figure is 58.2%. The value for `Cn1c(Nc2ccc(C(F)(F)F)cc2)nc2cc(Oc3ccnc(-c4ncc(C(F)(F)F)[nH]4)c3)ccc21` + O=C(Oc1ccc([N+](=O)[O-])cc1)N1CCC(C(O)(c2ccc3c(c2)OCO3)c2ccc3c(c2)OCO3)CC1 [JZL184] (first compound 0.4 µM, partner dose 5 µM) was 73%; that for `CC(C)C[C@H](NC(=O)[C@H](Cc1ccccc1)NC(=O)c1cnccn1)B(O)O` [Bortezomib] + C[As](C)SC[C@H](NC(=O)CC[C@H](N)C(=O)O)C(=O)NCC(=O)O [Darinaparsin] (first compound 0.005 µM, partner dose 2 µM) was 10.7%. In turn, `CO[C@H]1C[C@@H]2CC[C@@H](C)[C@@](O)(O2)C(=O)C(=O)N2CCCC[C@H]2C(=O)O[C@H]([C@H](C)C[C@@H]2CC[C@@H](OCCO)[C@H](OC)C2)CC(=O)[C@H](C)/C=C(\C)[C@@H](O)[C@@H](OC)C(=O)[C@H](C)C[C@H](C)/C=C/C=C/C=C/1C` [everolimus] + C[As](C)SC[C@H](NC(=O)CC[C@H](N)C(=O)O)C(=O)NCC(=O)O [Darinaparsin] (first compound 0.1 µM, partner dose 2 µM) registered a cell count of 47%. As for `Cc1cc(Nc2cc(N3CCN(C)CC3)nc(Sc3ccc(NC(=O)C4CC4)cc3)n2)n[nH]1` [Tozasertib] + C[C@]12O[C@H](C[C@]1(O)CO)n1c3ccccc3c3c4c(c5c6ccccc6n2c5c31)CNC4=O [Lestaurtinib] (first compound 0.03 µM, partner dose 0.02 µM), the figure is 86.8%; as for `COCC[n+]1c2c(n(Cc3cnccn3)c1C)C(=O)c1ccccc1C2=O` + O=C(Oc1ccc([N+](=O)[O-])cc1)N1CCC(C(O)(c2ccc3c(c2)OCO3)c2ccc3c(c2)OCO3)CC1 [JZL184] (first compound 0.002 µM, partner dose 5 µM), 16.9%. The value for `CN1CCN(c2ccc3nc(-c4c(N)c5c(F)cccc5[nH]c4=O)[nH]c3c2)CC1` [Dovitinib] + Cc1cc(SCc2sc(-c3ccc(C(F)(F)F)c(F)c3)nc2C)ccc1OCC(=O)O [GW0742] (first compound 0.5 µM, partner dose 10 µM) was 62.4%; that for `C=CCn1c(=O)c2cnc(Nc3ccc(N4CCN(C)CC4)cc3)nc2n1-c1cccc(C(C)(C)O)n1` + C/C(O)=C(\C#N)C(=O)Nc1cc(Br)ccc1Br [LFM-A13] (first compound 0.1 µM, partner dose 10 µM) was 85%. The value for `CC(C)C[C@H](NC(=O)[C@H](Cc1ccccc1)NC(=O)c1cnccn1)B(O)O` [Bortezomib] + Cc1cc(SCc2sc(-c3ccc(C(F)(F)F)c(F)c3)nc2C)ccc1OCC(=O)O [GW0742] (first compound 0.005 µM, partner dose 10 µM) was 12.1%; that for `C[C@@H]1CCN(C(=O)CC#N)C[C@@H]1N(C)c1ncnc2[nH]ccc12` + O=C(Oc1ccc([N+](=O)[O-])cc1)N1CCC(C(O)(c2ccc3c(c2)OCO3)c2ccc3c(c2)OCO3)CC1 [JZL184] (first compound 5 µM, partner dose 5 µM) was 86.7%. Take `COc1ccc(COc2ccc(Cc3cnc(N)nc3N)cc2OC)cc1` + O=C(Oc1ccc([N+](=O)[O-])cc1)N1CCC(C(O)(c2ccc3c(c2)OCO3)c2ccc3c(c2)OCO3)CC1 [JZL184] (first compound 5 µM, partner dose 5 µM): the cell count stood at 107%.

Consider `Clc1ccc(Nc2nnc(Cc3ccncc3)c3ccccc23)cc1` [vatalanib] + C/C(O)=C(\C#N)C(=O)Nc1cc(Br)ccc1Br [LFM-A13] (first compound 10 µM, partner dose 10 µM), for which the cell count came out at 73%. As for `Nc1ccn([C@@H]2O[C@H](CO)[C@@H](O)C2(F)F)c(=O)n1` [gemcitabine] + C[As](C)SC[C@H](NC(=O)CC[C@H](N)C(=O)O)C(=O)NCC(=O)O [Darinaparsin] (first compound 0.002 µM, partner dose 2 µM), the figure is 47.4%; as for `Cc1cc(Nc2cc(N3CCN(C)CC3)nc(Sc3ccc(NC(=O)C4CC4)cc3)n2)n[nH]1` [Tozasertib] + Cc1cc(SCc2sc(-c3ccc(C(F)(F)F)c(F)c3)nc2C)ccc1OCC(=O)O [GW0742] (first compound 0.03 µM, partner dose 10 µM), 87.2%.
